The source of these data is publication PMC4336329 (PLoS ONE, 2015).

Among all 310,000 compounds or so, about 14,000 (4.5%) showed an effect of 50% or more. The effect is printed as a negative number. The list shows a part of the results.
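Further: peak tail current of the secondary pulse compared with the same well before compound.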

The target of this test is human ether-à-go-go-related gene (hERG) potassium channel (human, UniProt Q12809). Kind of test: primary screen, population patch clamp on CHO cells stably expressing hERG.
human ether-à-go-go-related gene (hERG) potassium channel, sequence (Q12809 whole entry, looked up): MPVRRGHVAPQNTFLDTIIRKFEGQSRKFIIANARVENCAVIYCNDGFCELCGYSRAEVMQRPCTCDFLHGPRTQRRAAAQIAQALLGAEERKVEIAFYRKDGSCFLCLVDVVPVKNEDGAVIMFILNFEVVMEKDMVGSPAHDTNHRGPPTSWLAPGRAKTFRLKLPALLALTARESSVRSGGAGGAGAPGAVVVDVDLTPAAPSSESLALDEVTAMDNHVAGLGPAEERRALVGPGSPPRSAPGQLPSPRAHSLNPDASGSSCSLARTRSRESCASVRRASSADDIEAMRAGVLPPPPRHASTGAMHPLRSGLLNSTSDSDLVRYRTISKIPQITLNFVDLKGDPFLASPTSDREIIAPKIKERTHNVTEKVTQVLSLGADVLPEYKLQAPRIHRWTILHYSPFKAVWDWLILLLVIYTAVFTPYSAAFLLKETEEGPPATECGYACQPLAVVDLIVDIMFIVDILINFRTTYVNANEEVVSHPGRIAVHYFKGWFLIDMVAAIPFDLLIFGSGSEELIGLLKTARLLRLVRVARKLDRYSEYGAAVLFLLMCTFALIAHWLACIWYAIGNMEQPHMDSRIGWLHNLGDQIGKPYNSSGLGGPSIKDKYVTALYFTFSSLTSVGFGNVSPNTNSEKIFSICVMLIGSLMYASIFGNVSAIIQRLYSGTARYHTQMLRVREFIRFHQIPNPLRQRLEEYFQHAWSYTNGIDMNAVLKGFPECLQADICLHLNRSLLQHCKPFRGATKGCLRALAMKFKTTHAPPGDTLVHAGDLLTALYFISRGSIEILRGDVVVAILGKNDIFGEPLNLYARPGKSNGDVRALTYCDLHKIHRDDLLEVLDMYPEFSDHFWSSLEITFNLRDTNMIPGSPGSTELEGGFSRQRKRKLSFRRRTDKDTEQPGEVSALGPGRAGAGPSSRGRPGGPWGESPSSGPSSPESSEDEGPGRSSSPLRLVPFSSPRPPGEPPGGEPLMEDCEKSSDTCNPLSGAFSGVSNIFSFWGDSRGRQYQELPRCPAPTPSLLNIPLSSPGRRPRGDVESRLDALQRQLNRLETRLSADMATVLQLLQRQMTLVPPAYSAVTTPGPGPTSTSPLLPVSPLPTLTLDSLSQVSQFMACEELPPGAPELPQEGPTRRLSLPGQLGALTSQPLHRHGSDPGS
As for `Cc1ccc2cc(C#N)c(SCC(=O)N3CCCc4ccccc43)nc2c1C`, the “hERG current change (%, negative = inhibition) at 10uM” value was 6.26%.

On to `Cc1ccccc1NC(=O)C(=O)NCc1ccccn1`, for which the “hERG current change (%, negative = inhibition) at 10uM” value is on record as 6.07%.

Take `CCOC(=O)c1[nH]c(C)c(C(=O)Nc2ccc(F)cc2)c1C`: the “hERG current change (%, negative = inhibition) at 10uM” value was 5.45%.

With `C=CCN(Cc1cccc(OC)c1OC)C(=O)Oc1ccccc1`, the “hERG current change (%, negative = inhibition) at 10uM” value was found to be 5.03%.

With `O=C(NCc1nc2ccccc2[nH]1)C1=C[C@@H](c2csc3ccccc23)C[C@@H](OCc2ccc(CO)cc2)O1`, the “hERG current change (%, negative = inhibition) at 10uM” value is recorded as -9.83%.

Regarding `COc1ccccc1NC(=O)Cc1nc(CCl)cs1.Cl`, the “hERG current change (%, negative = inhibition) at 10uM” value is reported as 2.52%.

For `CC(=O)c1sc(NC(=O)C2CC(=O)N(Cc3ccccc3)C2)nc1-c1ccccc1` (stereo not shown), the “hERG current change (%, negative = inhibition) at 10uM” value is -15%.

Consider `Cc1ccc(C)c(N2CCN(C(=O)C3CCN(S(=O)(=O)c4cccc5nsnc45)CC3)CC2)c1`, for which the “hERG current change (%, negative = inhibition) at 10uM” value is reported as -8.49%.

In the case of `C=CCNc1nc(C(=O)OCC(=O)NCc2ccccc2OC)cs1`, the “hERG current change (%, negative = inhibition) at 10uM” value was found to be 7.07%.

As for `C/C(=N\N=C(c1ccccc1)c1ccccc1)c1cccs1`, the “hERG current change (%, negative = inhibition) at 10uM” value is on record as -3.59%.

As for `COc1ccc(N2CCN(c3ncnc4scc(-c5ccccc5)c34)CC2)cc1`, the “hERG current change (%, negative = inhibition) at 10uM” value came to 18.6%.

Turning to `Cc1ccc(S(N)(=O)=O)cc1NC(=O)C(c1ccccc1)c1ccccc1`, the “hERG current change (%, negative = inhibition) at 10uM” value is reported as 19.3%.

As to `O=C(Nc1nnc(SCc2ccccc2F)s1)c1ccco1`, the “hERG current change (%, negative = inhibition) at 10uM” value is on record as 5.38%.

On to `O=C(O)c1ccc(Cn2c(SCc3cc(=O)n4cc(Br)ccc4n3)nc3ccsc3c2=O)cc1`, for which the “hERG current change (%, negative = inhibition) at 10uM” value was 16.5%.

On to `COc1ccc(NC(=O)CCCN2C(=O)C(c3ccccc3)Oc3cccnc32)c(OC)c1` (stereo not shown), for which the “hERG current change (%, negative = inhibition) at 10uM” value worked out at 13.4%.

With `CCCc1c(C)[nH]c2ccc(NC(C)=O)cc2c1=O`, the “hERG current change (%, negative = inhibition) at 10uM” value is listed as 12.5%.

Take `O=C(NCCc1ccc(Cl)cc1)c1ccc(CS(=O)Cc2ccc(Cl)cc2)o1` (stereo not shown): the “hERG current change (%, negative = inhibition) at 10uM” value is recorded as -39.8%.

As for `CCCCNCCOCCOc1ccc(C)cc1Br.O=C(O)C(=O)O`, the “hERG current change (%, negative = inhibition) at 10uM” value was -32.1%.

As to `CC(C)C[C@@H](NC(=O)C1CCC(CNC(=O)[C@@H]2CCCN2C(=O)OC(C)(C)C)CC1)C(=O)O` (stereo partly shown), the “hERG current change (%, negative = inhibition) at 10uM” value was 20.7%.

With `COc1ccc(C(=O)c2sc(Nc3ccccc3)nc2N)cc1`, the “hERG current change (%, negative = inhibition) at 10uM” value came out at 18.1%.

On to `Cc1cc2oc(C(=O)Nc3ccc(S(=O)(=O)Nc4ncccn4)cc3)cc(=O)c2cc1Cl`, for which the “hERG current change (%, negative = inhibition) at 10uM” value is -9.37%.

As to `COc1cccc(N2CCN(C(=O)CCc3nnc4ccc(N5CCCC5)nn34)CC2)c1`, the “hERG current change (%, negative = inhibition) at 10uM” value is on record as -28.7%.

Take `O=C(NC1CCCC1)C(c1cccnc1)N(Cc1ccc(F)cc1)C(=O)c1csnn1` (stereo not shown): the “hERG current change (%, negative = inhibition) at 10uM” value is -20.6%.

Take `CCC1=Nc2ccc(Br)cc2C(c2ccccc2)N1CC(=O)OC` (stereo not shown): the “hERG current change (%, negative = inhibition) at 10uM” value is -59.1%.

Consider `O=C(CCS(=O)(=O)c1ccccc1)NCCS(=O)(=O)c1ccccc1`, for which the “hERG current change (%, negative = inhibition) at 10uM” value is given as 13.1%.

Regarding `O=C(CCNC(=O)c1ccccc1Cl)Nc1ccccc1N1CCCC1`, the “hERG current change (%, negative = inhibition) at 10uM” value came out at 10.4%.

Take `CCOC(=O)C1CCCN(S(=O)(=O)CCNC(=O)c2cccc(OC)c2)C1` (stereo not shown): the “hERG current change (%, negative = inhibition) at 10uM” value is reported as -6.37%.

As to `CCOCCn1c(CN2CCOCC2)nc2c1c(=O)[nH]c(=O)n2C`, the “hERG current change (%, negative = inhibition) at 10uM” value is reported as 15.5%.

Turning to `Cn1c(=O)c(=O)n(C)c2cc(N3CCOCC3)c(NS(=O)(=O)c3ccc([N+](=O)[O-])cc3)cc21`, the “hERG current change (%, negative = inhibition) at 10uM” value worked out at 2.58%.

Regarding `CCCN1CCN(CCCNC(=O)CCn2nc(-c3ccccc3)ccc2=O)CC1`, the “hERG current change (%, negative = inhibition) at 10uM” value is recorded as -47.4%.

`O=C(NCc1nc2ccccc2[nH]1)c1ccc(S(=O)(=O)N2CCOCC2)cc1`: the “hERG current change (%, negative = inhibition) at 10uM” value came to 7.47%.

As for `COc1ccc(CCNc2nc(-c3ccncc3)cs2)cc1OC`, the “hERG current change (%, negative = inhibition) at 10uM” value is -20.4%.

`Cc1cccc(NC(=O)C23CCC(C)(/C(=N/O)C2)C3(C)C)c1` (stereo not shown): the “hERG current change (%, negative = inhibition) at 10uM” value is -6.79%.

Consider `Cc1cc(=O)[nH]c(SCC(=O)Nc2ccc(Br)cn2)n1`, for which the “hERG current change (%, negative = inhibition) at 10uM” value was found to be 8.76%.

On to `COc1cc(/C=N/NC(=O)C[n+]2ccccc2)cc(OC)c1OC(C)=O.[Cl-]`, for which the “hERG current change (%, negative = inhibition) at 10uM” value is on record as 9.53%.

With `N#CCCNc1ccc(OCCC#N)cc1`, the “hERG current change (%, negative = inhibition) at 10uM” value was 13.8%.

Regarding `CS(=O)(=O)N(Cc1ccccc1)c1ccc(C(=O)N2CCOCC2)cc1`, the “hERG current change (%, negative = inhibition) at 10uM” value was -8.27%.

With `CCOC(=O)C1(Cc2ccccc2)CCCN(Cc2ccc(OCC)c(CO)c2)C1` (stereo not shown), the “hERG current change (%, negative = inhibition) at 10uM” value is reported as -52.3%.

In the case of `CCCCC(=O)Nc1ncc2c(n1)CC(C)(C)CC2=O`, the “hERG current change (%, negative = inhibition) at 10uM” value is -5.63%.

`Cc1ccc(NC(=O)/C(Cl)=C\c2ccccc2)cc1`: the “hERG current change (%, negative = inhibition) at 10uM” value is listed as -3.3%.

In the case of `O=C(COc1ccc([N+](=O)[O-])cc1)Nc1cccnc1`, the “hERG current change (%, negative = inhibition) at 10uM” value is reported as -47.2%.

For `COc1ccc(CNc2ccc(-c3ccc(OC)cc3)nn2)cc1`, the “hERG current change (%, negative = inhibition) at 10uM” value is 0.778%.

Take `CCN(CC)CCNC(=O)COc1ccc(OC)cc1.Cl`: the “hERG current change (%, negative = inhibition) at 10uM” value is given as -9.07%.

Regarding `O=C(NCc1ccccc1)c1nc2c(nnn2Cc2cccc(Cl)c2)c(=O)[nH]1`, the “hERG current change (%, negative = inhibition) at 10uM” value is reported as -1.08%.

As for `CCN(CC)c1ncn(Cc2c(Cl)cccc2Cl)c2ncnc1-2`, the “hERG current change (%, negative = inhibition) at 10uM” value is -21.2%.

Turning to `O=C(c1ccc(Cl)cc1Cl)N1CCN(c2ccccn2)CC1`, the “hERG current change (%, negative = inhibition) at 10uM” value is -2.49%.

For the compound `CCC(C)Sc1nc2c(c(=O)[nH]c(=O)n2C)n1CC(O)COc1ccccc1C` (stereo not shown), the “hERG current change (%, negative = inhibition) at 10uM” value is on record as -0.743%.

On to `O=C(CCNC(=O)c1ccc(Br)cc1)NCc1ccccc1F`, for which the “hERG current change (%, negative = inhibition) at 10uM” value is -13%.

Regarding `COc1ccccc1CNC(=O)C1CCN(S(C)(=O)=O)CC1`, the “hERG current change (%, negative = inhibition) at 10uM” value is -12%.

With `O=C(Nc1nnc(N2CCCCCC2)s1)c1cc(-c2ccc(Br)cc2)on1`, the “hERG current change (%, negative = inhibition) at 10uM” value was found to be 12.2%.

With `NS(=O)(=O)c1ccc(CCNC(=O)c2cccc([N+](=O)[O-])c2)cc1`, the “hERG current change (%, negative = inhibition) at 10uM” value is on record as 11.2%.

As to `Cn1c(=O)[nH]c(=O)c2c1nc(NCCCn1ccnc1)n2Cc1ccccc1`, the “hERG current change (%, negative = inhibition) at 10uM” value worked out at 2.75%.

`S=C(NCCSCc1c(Cl)cccc1Cl)Nc1ccccc1`: the “hERG current change (%, negative = inhibition) at 10uM” value is on record as -3.31%.

Take `CCCOc1ccc(S(=O)(=O)N2CCN(C)CC2)c2ccccc12`: the “hERG current change (%, negative = inhibition) at 10uM” value is recorded as -27.8%.

Consider `CCC(Sc1nc2cc3c(cc2c(=O)n1Cc1ccco1)OCO3)C(=O)NCCOC` (stereo not shown), for which the “hERG current change (%, negative = inhibition) at 10uM” value is on record as -63.6%.
